These are yes or no findings as the source states them, for the method shown. Binding seen in cells or lysates may run through a third protein. Some binding calls cover weakened binding; strength is not graded here.
Assays:
[1] = biological target: Myc–KIF3A (UniProt Q9Y496); test: co-IP; Myc-tagged bait expressed in HeLa cells, anti-Myc antibody and Protein G–Sepharose 4B beads overnight at 4°C; immunoblotting of endogenous partners
[2] = biological target: GFP–Rabip4′ (UniProt Q96T51); test: co-IP; GFP-tagged bait expressed in HeLa cells, lysate (20 mM HEPES pH7.4, 100 mM KCl, 10 mM MgCl2, 5 mM EDTA, 1% Triton X-100, 100 µM GTPγS) on GFP-Trap_A beads 4–5 h at 4°C; immunoblotting of endogenous partners

Amino acid sequences for entries named in this document (tags omitted).
UniProt Q9Y496: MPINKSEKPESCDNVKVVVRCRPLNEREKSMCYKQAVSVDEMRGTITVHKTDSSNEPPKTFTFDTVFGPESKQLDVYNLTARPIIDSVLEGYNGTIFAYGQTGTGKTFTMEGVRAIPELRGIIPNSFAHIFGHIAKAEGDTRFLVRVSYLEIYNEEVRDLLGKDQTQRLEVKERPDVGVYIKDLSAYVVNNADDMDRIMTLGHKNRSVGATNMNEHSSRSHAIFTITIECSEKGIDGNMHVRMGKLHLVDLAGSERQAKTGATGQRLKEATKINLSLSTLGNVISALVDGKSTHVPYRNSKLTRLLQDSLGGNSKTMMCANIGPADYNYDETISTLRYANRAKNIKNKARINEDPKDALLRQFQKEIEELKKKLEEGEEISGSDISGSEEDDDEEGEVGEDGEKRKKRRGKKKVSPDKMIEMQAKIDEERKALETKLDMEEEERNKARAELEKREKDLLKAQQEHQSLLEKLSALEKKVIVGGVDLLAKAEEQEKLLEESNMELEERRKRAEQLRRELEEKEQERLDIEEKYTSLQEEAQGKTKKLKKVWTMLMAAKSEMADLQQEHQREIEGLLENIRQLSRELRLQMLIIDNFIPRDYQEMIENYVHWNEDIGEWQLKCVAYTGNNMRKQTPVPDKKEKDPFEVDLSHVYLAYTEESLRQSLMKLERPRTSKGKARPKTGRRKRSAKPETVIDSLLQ
UniProt Q96T51: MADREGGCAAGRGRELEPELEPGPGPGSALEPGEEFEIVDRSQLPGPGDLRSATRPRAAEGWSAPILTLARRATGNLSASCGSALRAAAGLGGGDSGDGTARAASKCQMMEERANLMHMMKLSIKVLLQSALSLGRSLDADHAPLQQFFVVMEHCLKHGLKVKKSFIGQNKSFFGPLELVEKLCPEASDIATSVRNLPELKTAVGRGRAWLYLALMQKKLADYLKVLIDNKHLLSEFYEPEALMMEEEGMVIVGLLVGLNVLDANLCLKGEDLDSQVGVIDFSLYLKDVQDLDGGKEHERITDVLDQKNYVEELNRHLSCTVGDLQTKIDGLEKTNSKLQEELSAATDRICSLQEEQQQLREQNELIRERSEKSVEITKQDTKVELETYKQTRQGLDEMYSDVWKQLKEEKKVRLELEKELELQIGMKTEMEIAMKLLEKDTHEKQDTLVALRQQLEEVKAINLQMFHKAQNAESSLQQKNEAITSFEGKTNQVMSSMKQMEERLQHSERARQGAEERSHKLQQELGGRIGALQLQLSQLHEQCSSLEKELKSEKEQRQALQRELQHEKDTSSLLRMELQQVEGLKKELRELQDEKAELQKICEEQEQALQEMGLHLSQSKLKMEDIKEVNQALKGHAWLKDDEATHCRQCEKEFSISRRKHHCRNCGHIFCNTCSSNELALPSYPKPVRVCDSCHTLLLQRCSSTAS

binding [1]: binds
binding [2]: binds
B1: rabenosyn-5 (endogenous, HeLa) (protein, UniProt Q9H1K0 1-784)
chain: MASLDDPGEVREGFLCPLCLKDLQSFYQLHSHYEEEHSGEDRDVKGQIKSLVQKAKKAKDRLLKREGDDRAESGTQGYESFSYGGVDPYMWEPQELGAVRSHLSDFKKHRAARIDHYVVEVNKLIIRLEKLTAFDRTNTESAKIRAIEKSVVPWVNDQDVPFCPDCGNKFSIRNRRHHCRLCGSIMCKKCMELISLPLANKLTSASKESLSTHTSPSQSPNSVHGSRRGSISSMSSVSSVLDEKDDDRIRCCTHCKDTLLKREQQIDEKEHTPDIVKLYEKLRLCMEKVDQKAPEYIRMAASLNAGETTYSLEHASDLRVEVQKVYELIDALSKKILTLGLNQDPPPHPSNLRLQRMIRYSATLFVQEKLLGLMSLPTKEQFEELKKKRKEEMERKRAVERQAALESQRRLEERQSGLASRAANGEVASLRRGPAPLRKAEGWLPLSGGQGQSEDSDPLLQQIHNITSFIRQAKAAGRMDEVRTLQENLRQLQDEYDQQQTEKAIELSRRQAEEEDLQREQLQMLRERELEREREQFRVASLHTRTRSLDFREIGPFQLEPSREPRTHLAYALDLGSSPVPSSTAPKTPSLSSTQPTRVWSGPPAVGQERLPQSSMPQQHEGPSLNPFDEEDLSSPMEEATTGPPAAGVSLDPSARILKEYNPFEEEDEEEEAVAGNPFIQPDSPAPNPFSEEDEHPQQRLSSPLVPGNPFEEPTCINPFEMDSDSGPEAEEPIEEELLLQQIDNIKAYIFDAKQCGRLDEVEVLTENLRELKHTLAKQKGGTD

From article PMC6151265
